Reference: the supplement of paper PMC8728848
The list shows a part of the results.

Tests used:
Assay in all cases: glycan array binding signal (z-score within array); higher = stronger binding
Details in all cases: glycan notation: IUPAC condensed, linker removed
[1] = molecular target: Neu5Ac(a2-6)Gal(b1-4)GlcNAc(b1-3)[Neu5Ac(a2-6)Gal(b1-4)GlcNAc(b1-6)]GalNAc
Procedure, shortened: (§1)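 Glycan array data came from 3228 arrays in the Consortium for Functional Glycomics database, and only arrays with an available protein sequence were kept. Glycan names were put into IUPAC-condensed notation, and columns mapping to the same glycan were averaged. The binding signal is a within-array Z-score, averaged across arrays of one protein sequence run at different concentrations or buffers and across linkers. A negative Z-score can be read as non-binding.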

[2] = molecular target: Neu5Ac(a2-6)Gal(b1-4)GlcNAc(b1-6)GalNAc
Procedure, shortened: as §1

[3] = molecular target: Neu5Ac(a2-6)Gal(b1-4)GlcNAc(b1-6)[Gal(b1-3)GlcNAc(b1-3)]Gal(b1-4)Glc
Procedure, shortened: as §1

[4] = molecular target: Neu5Ac(a2-6)Gal(b1-4)GlcNAc(b1-6)[Gal(b1-3)]GalNAc
Procedure, shortened: as §1

[5] = molecular target: Neu5Ac(a2-6)Gal(b1-4)GlcNAc6S
Procedure, shortened: as §1

Neu5Ac(a2-6)GalNAc = molecular target: Neu5Ac(a2-6)GalNAc
Procedure, shortened: as §1

[6] = molecular target: Neu5Ac(a2-6)GalNAc(b1-4)GlcNAc
Procedure, shortened: as §1

[7] = molecular target: Neu5Ac(a2-6)GalNAc(b1-4)GlcNAc6S
Procedure, shortened: as §1

[8] = molecular target: Neu5Ac(a2-6)GlcNAc(b1-4)GlcNAc
Procedure, shortened: as §1

[9] = molecular target: Neu5Ac(a2-6)GlcNAc(b1-4)GlcNAc(b1-4)GlcNAc
Procedure, shortened: as §1

Neu5Ac(a2-8)Neu5Ac = molecular target: Neu5Ac(a2-8)Neu5Ac
Procedure, shortened: as §1

[10] = molecular target: Neu5Ac(a2-8)Neu5Ac(a2-3)Gal(b1-3)GalNAc(b1-4)[Neu5Ac(a2-3)]Gal(b1-4)Glc
Procedure, shortened: as §1

[11] = molecular target: Neu5Ac(a2-8)Neu5Ac(a2-3)Gal(b1-3)GalNAc(b1-4)[Neu5Ac(a2-8)Neu5Ac(a2-3)]Gal(b1-4)Glc
Procedure, shortened: as §1

[12] = molecular target: Neu5Ac(a2-8)Neu5Ac(a2-3)Gal(b1-4)Glc
Procedure, shortened: as §1

[13] = molecular target: Neu5Ac(a2-8)Neu5Ac(a2-3)Gal(b1-4)GlcNAc
Procedure, shortened: as §1

[14] = molecular target: Neu5Ac(a2-8)Neu5Ac(a2-3)[Gal(b1-3)GalNAc(b1-4)]Gal(b1-4)Glc
Procedure, shortened: as §1

[15] = molecular target: Neu5Ac(a2-8)Neu5Ac(a2-3)[GalNAc(b1-4)]Gal(b1-4)Glc
Procedure, shortened: as §1

[16] = molecular target: Neu5Ac(a2-8)Neu5Ac(a2-8)Neu5Ac
Procedure, shortened: as §1

[17] = molecular target: Neu5Ac(a2-8)Neu5Ac(a2-8)Neu5Ac(a2-3)Gal(b1-4)Glc
Procedure, shortened: as §1

[18] = molecular target: Neu5Ac(a2-8)Neu5Ac(a2-8)Neu5Ac(a2-3)[Gal(b1-3)GalNAc(b1-4)]Gal(b1-4)Glc
Procedure, shortened: as §1

[19] = molecular target: Neu5Ac(a2-8)Neu5Ac(a2-8)Neu5Ac(a2-3)[GalNAc(b1-4)]Gal(b1-4)Glc
Procedure, shortened: as §1

[20] = molecular target: Neu5Ac(a2-8)Neu5Ac(a2-8)Neu5Ac(a2-8)Neu5Ac(a2-3)[GalNAc(b1-4)]Gal(b1-4)Glc
Procedure, shortened: as §1

[21] = molecular target: Neu5Ac(a2-8)Neu5Gc(a2-3)Gal(b1-4)GlcNAc
Procedure, shortened: as §1

[22] = molecular target: Neu5Ac(b2-6)Gal(b1-4)GlcNAc
Procedure, shortened: as §1

Neu5Ac(b2-6)GalNAc = molecular target: Neu5Ac(b2-6)GalNAc
Procedure, shortened: as §1

[23] = molecular target: Neu5Ac9Ac(a2-3)Gal(b1-3)GlcNAc
Procedure, shortened: as §1

[24] = molecular target: Neu5Ac9Ac(a2-3)Gal(b1-4)GlcNAc
Procedure, shortened: as §1

[25] = molecular target: Neu5Ac9Ac(a2-6)Gal(b1-4)GlcNAc
Procedure, shortened: as §1

[26] = molecular target: Neu5Gc(a2-3)Gal(b1-3)GlcNAc
Procedure, shortened: as §1

[27] = molecular target: Neu5Gc(a2-3)Gal(b1-3)[Fuc(a1-4)]GlcNAc
Procedure, shortened: as §1

Neu5Gc(a2-3)Gal(b1-4)Glc = molecular target: Neu5Gc(a2-3)Gal(b1-4)Glc
Procedure, shortened: as §1

[28] = molecular target: Neu5Gc(a2-3)Gal(b1-4)GlcNAc
Procedure, shortened: as §1

[29] = molecular target: Neu5Gc(a2-3)Gal(b1-4)GlcNAc(b1-3)Gal(b1-4)GlcNAc(b1-2)Man(a1-3)[Neu5Gc(a2-3)Gal(b1-4)GlcNAc(b1-3)Gal(b1-4)GlcNAc(b1-2)Man(a1-6)]Man(b1-4)GlcNAc(b1-4)GlcNAc
Procedure, shortened: as §1

[30] = molecular target: Neu5Gc(a2-3)Gal(b1-4)[Fuc(a1-3)]GlcNAc
Procedure, shortened: as §1

[31] = molecular target: Neu5Gc(a2-6)Gal(b1-4)GlcNAc
Procedure, shortened: as §1

Neu5Gc(a2-6)GalNAc = molecular target: Neu5Gc(a2-6)GalNAc
Procedure, shortened: as §1

[32] = molecular target: Neu5Gc(a2-8)Neu5Ac(a2-3)Gal(b1-4)GlcNAc
Procedure, shortened: as §1

[33] = molecular target: Neu5Gc(a2-8)Neu5Gc(a2-3)Gal(b1-4)GlcNAc
Procedure, shortened: as §1

B1: Sebin1 (Coprinopsis cinerea), A8PEE3 (protein)
chain: MTSPFYAHIHNVQDDNTWRFTLIFANRATADEWWRAISEAPANTSIAKSITRVTPQYYTHDVNIWNIWNFFADGNIKSISERFRGRLFIVLENDRGGRGITVIPPVPIVDHVSGNWFYIRSKTAPHLFWYYDERRSSIYASKEKRTRFKISIRNPSSQTPKNAIMINTDDVTIHIKENLYVGVDNNLGHIIPTRAYRTFKFGELESGAIAGFDVVENIEERCSSTFDGASLSISGPDSSSPGEPWELV
How did the “glycan array binding signal (z-score)” value [1] turn out when B1 was run?
The value was -0.475.

What about the “glycan array binding signal (z-score)” value [2] of the same binder?
The value was 0.68.

What about the “glycan array binding signal (z-score)” value [3] of the same binder?
The value was 0.262.

What about the “glycan array binding signal (z-score)” value [4] of the same binder?
The value was 0.235.

And the “glycan array binding signal (z-score)” value [5]?
The value was -0.037.

What about the “glycan array binding signal (z-score)” value (Neu5Ac(a2-6)GalNAc) of the same binder?
Its value is -0.706.

What about the “glycan array binding signal (z-score)” value [6] of the same binder?
Its value is -0.56.

And the “glycan array binding signal (z-score)” value [7]?
Its value is 0.591.

And the “glycan array binding signal (z-score)” value [8]?
Its value is -0.869.

And the “glycan array binding signal (z-score)” value [9]?
Its value is -0.656.

What about the “glycan array binding signal (z-score)” value (Neu5Ac(a2-8)Neu5Ac) of the same binder?
The value was -0.323.

And the “glycan array binding signal (z-score)” value [10]?
Its value is -0.401.

And the “glycan array binding signal (z-score)” value [11]?
The value was -0.152.

And the “glycan array binding signal (z-score)” value [12]?
The value was -0.368.

What about the “glycan array binding signal (z-score)” value [13] of the same binder?
The value was -0.406.

What about the “glycan array binding signal (z-score)” value [14] of the same binder?
The value was -0.038.

What about the “glycan array binding signal (z-score)” value [15] of the same binder?
The value was -0.445.

What about the “glycan array binding signal (z-score)” value [16] of the same binder?
The value was -0.546.

And the “glycan array binding signal (z-score)” value [17]?
Its value is -0.293.

And the “glycan array binding signal (z-score)” value [18]?
The value was -0.13.

And the “glycan array binding signal (z-score)” value [19]?
The value was -0.609.

And the “glycan array binding signal (z-score)” value [20]?
The value was 0.415.

What about the “glycan array binding signal (z-score)” value [21] of the same binder?
The value was -0.427.

What about the “glycan array binding signal (z-score)” value [22] of the same binder?
Its value is 0.009.

And the “glycan array binding signal (z-score)” value (Neu5Ac(b2-6)GalNAc)?
The value was -0.55.

And the “glycan array binding signal (z-score)” value [23]?
Its value is 0.165.

And the “glycan array binding signal (z-score)” value [24]?
The value was -0.473.

And the “glycan array binding signal (z-score)” value [25]?
The value was -0.635.

What about the “glycan array binding signal (z-score)” value [26] of the same binder?
Its value is -0.447.

What about the “glycan array binding signal (z-score)” value [27] of the same binder?
Its value is -0.26.

What about the “glycan array binding signal (z-score)” value (Neu5Gc(a2-3)Gal(b1-4)Glc) of the same binder?
Its value is -0.427.

What about the “glycan array binding signal (z-score)” value [28] of the same binder?
Its value is -0.074.

And the “glycan array binding signal (z-score)” value [29]?
Its value is 0.166.

And the “glycan array binding signal (z-score)” value [30]?
Its value is -0.42.

And the “glycan array binding signal (z-score)” value [31]?
The value was -0.391.

What about the “glycan array binding signal (z-score)” value (Neu5Gc(a2-6)GalNAc) of the same binder?
Its value is -0.54.

And the “glycan array binding signal (z-score)” value [32]?
Its value is 0.133.

And the “glycan array binding signal (z-score)” value [33]?
The value was -0.582.
